From the supplement of paper PMC8285479
Structures can show the parent of a compound that is named as a salt. ± gives the standard deviation of the averaged measurements. In all, about 1,900 compounds were measured (“normalised cell viability (NPI; 0 = phenylarsine oxide control, 1 = DMSO control)”: median about 1, lowest 2% from about 0.039 on). Some of the results follow.

System: NCI-H1944
Test: normalised cell viability (NPI; 0 = phenylarsine oxide control, 1 = DMSO control) (fraction of DMSO control); NCI-H1944 is a non-small cell lung cancer line; higher = more viable cells (less compound toxicity)
Conditions: 6 days
[1] = glucocorticoid arm: hydrocortisone 2.75 uM co-treatment, compound 1 µM
[2] = glucocorticoid arm: hydrocortisone 2.75 uM co-treatment, compound 5 µM
[3] = glucocorticoid arm: hydrocortisone 2.75 uM pre-treated 2 days and continued, compound 1 µM
[4] = glucocorticoid arm: hydrocortisone 2.75 uM pre-treated 2 days and continued, compound 5 µM
[5] = glucocorticoid arm: vehicle, compound 1 µM
[6] = glucocorticoid arm: vehicle, compound 5 µM
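Note: CTB read-out in 384-well plates, mean of triplicate wells, normalised per plate against 1 µM phenylarsine oxide and 0.1% DMSO, compounds added 24 h after seeding.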

SMILES | normalised cell viability [1] | normalised cell viability [2] | normalised cell viability [3] | normalised cell viability [4] | normalised cell viability [5] | normalised cell viability [6]
COc1ccc(CNC(=O)Nc2ncc([N+](=O)[O-])s2)cc1 | 1.01 ± 0.016 | 1.04 ± 0.011 | 1.007 ± 0.0058 | 1.02 ± 0.017 | 0.998 ± 0.0035 | 1.01 ± 0.012
Nc1nc(SCc2ccc([N+](=O)[O-])cc2)c2ncn([C@@H]3O[C@H](CO)[C@H](O)C3O)c2n1 (stereo partly drawn) [S-(4-Nitrobenzyl)-6-thioguanosine] | 0.9907 ± 0.0067 | 0.987 ± 0.017 | 0.989 ± 0.018 | 0.976 ± 0.0071 | 0.978 ± 0.014 | 0.9767 ± 0.0051
O=C(c1ccc(Cl)cc1)N1CCN(c2ccc([N+](=O)[O-])c3ncccc23)CC1 | 1.01 ± 0.013 | 1.01 ± 0.027 | 0.992 ± 0.014 | 0.996 ± 0.014 | 0.997 ± 0.015 | 1 ± 0.021
Nc1cccc2c1CN(C1CCC(=O)NC1=O)C2=O (configuration not stated) [Lenalidomide] | 1.02 ± 0.01 | 1.06 ± 0.032 | 1.02 ± 0.01 | 1.04 ± 0.015 | 0.995 ± 0.0046 | 1.005 ± 0.0092
Nc1cccc2c1CN(C1CCC(=O)NC1=O)C2=O (configuration not stated) [Lenalidomide (Revlimid)] | 0.997 ± 0.015 | 1.037 ± 0.0058 | 0.998 ± 0.028 | 1.03 ± 0.015 | 1.002 ± 0.0076 | 1.002 ± 0.0068
O=C(Nc1ccc(-c2ccnc(Nc3ccc(N4CCOCC4)cc3)n2)cc1)C1CCCN1 (configuration not stated) | 0.997 ± 0.018 | 0.966 ± 0.017 | 0.975 ± 0.013 | 0.939 ± 0.024 | 1.002 ± 0.0065 | 1.01 ± 0.011
NOCC(=O)O [O-(Carboxymethyl)hydroxylamine hemihydrochloride] | 0.9827 ± 0.0074 | 0.978 ± 0.02 | 0.99133 ± 0.00058 | 0.966 ± 0.0085 | 0.9807 ± 0.009 | 0.9753 ± 0.0051
CCC[C@H](NC(=O)[C@@H]1[C@H]2CCC[C@H]2CN1C(=O)[C@@H](NC(=O)[C@@H](NC(=O)c1cnccn1)C1CCCCC1)C(C)(C)C)C(=O)C(=O)NC1CC1 [Telaprevir (VX-950)] | 0.981 ± 0.014 | 1.02 ± 0.02 | 0.994 ± 0.018 | 1.017 ± 0.0058 | 0.986 ± 0.012 | 1.004 ± 0.0098
CCc1cccc2c3c([nH]c12)C(CC)(CC(=O)O)OCC3 (configuration not stated) [Etodolac] | 1.007 ± 0.0058 | 0.9933 ± 0.0076 | 1.01 ± 0.013 | 1.001 ± 0.0082 | 1.003 ± 0.0058 | 1.003 ± 0.0058
C[C@@H]1CN(CC(=O)Nc2ccc3c(c2)Cc2cccc(-c4cc(=O)cc(N5CCOCC5)o4)c2S3)C[C@H](C)O1 | 0.992 ± 0.01 | 1.01 ± 0.034 | 0.9797 ± 0.007 | 0.984 ± 0.017 | 1.01 ± 0.012 | 1.013 ± 0.0058
CN(C)CCCO[C@@H]1[C@H]2OC(C)(C)O[C@H]2O[C@@H]1[C@H](O)CO [Amiprilose hydrochloride] | 0.998 ± 0.013 | 1 ± 0.016 | 0.917 ± 0.13 | 0.999 ± 0.016 | 0.998 ± 0.011 | 0.999 ± 0.011
C[C@]12CC[C@@H]3c4ccc(O)cc4CC[C@H]3[C@@H]1C[C@@H](O)[C@@H]2O [Estriol] | 1.02 ± 0.011 | 1.01 ± 0.014 | 1.01 ± 0.01 | 1.02 ± 0.021 | 1.007 ± 0.0058 | 1.01 ± 0.011
C=CC(=O)Nc1ccc2ncnc(Nc3ccc(OCc4cccc(F)c4)c(Cl)c3)c2c1 | 0.905 ± 0.016 | 0.854 ± 0.043 | 0.92 ± 0.014 | 0.93 ± 0.023 | 0.815 ± 0.021 | 0.623 ± 0.016
CC1=C(CC(=O)O)c2cc(F)ccc2/C1=C\c1ccc([S+](C)[O-])cc1 (configuration not stated) [Sulindac] | 1 ± 0.0089 | 1.03 ± 0.011 | 1.03 ± 0.046 | 1.01 ± 0.023 | 0.9923 ± 0.0055 | 0.9943 ± 0.006
C=CC(=O)N1CCC[C@@H](n2nc(-c3ccc(Oc4ccccc4)cc3)c3c(N)ncnc32)C1 | 0.885 ± 0.026 | 0.894 ± 0.019 | 0.9473 ± 0.0055 | 0.931 ± 0.051 | 0.836 ± 0.027 | 0.771 ± 0.036
O=C(O)/C(=C\c1c(C(=O)O)[nH]c2cc(Cl)cc(Cl)c12)c1ccccc1 | 1.02 ± 0.015 | 1.06 ± 0.017 | 1.017 ± 0.0058 | 1.08 ± 0.081 | 0.995 ± 0.002 | 1.013 ± 0.0058
COC[C@H](NC(=O)c1cnc(C)s1)C(=O)N[C@@H](COC)C(=O)N[C@@H](Cc1ccccc1)C(=O)[C@@]1(C)CO1 [Oprozomib (ONX 0912)] | 0.208 ± 0.051 | 0.0253 ± 0.0081 | 0.7 ± 0.017 | 0.301 ± 0.021 | 0.0106 ± 0.0015 | 0.00109 ± 0.00065
O=C(O)c1cc(O)c2ccc(Cl)cc2n1 [7-Chlorokynurenic acid] | 1.002 ± 0.0069 | 0.974 ± 0.0072 | 1.01 ± 0.015 | 0.9873 ± 0.0046 | 1.01 ± 0.01 | 0.997 ± 0.0036
NCCS(=O)O [Hypotaurine] | 1.01 ± 0.01 | 1.01 ± 0.011 | 1.02 ± 0.015 | 1.01 | 0.995 ± 0.0044 | 0.9943 ± 0.0055
N[C@@H](C(=O)N[C@@H]1C(=O)N2C(C(=O)O)=C(Cl)CS[C@H]12)c1ccccc1 [Cefaclor] | 1.017 ± 0.0058 | 1 ± 0.027 | 1.013 ± 0.0058 | 1.015 ± 0.0071 | 0.9933 ± 0.007 | 0.999 ± 0.012
CN1CCC[C@@H]1c1cccnc1.Cc1ccc(C(=O)O[C@H](C(=O)O)[C@@H](OC(=O)c2ccc(C)cc2)C(=O)O)cc1 [(+)-Nicotine (+)-di-p-toluoyl tartrate] | 1.03 ± 0.015 | 1.02 ± 0.016 | 1.03 ± 0.01 | 1.03 ± 0.021 | 1.027 ± 0.0058 | 1.03 ± 0.015
N=C(N)N/N=C/c1c(Cl)cccc1Cl [Guanabenz acetate] | 1.013 ± 0.0058 | 0.991 ± 0.021 | 1.02 | 1.01 ± 0.01 | 1.023 ± 0.0058 | 1.02 ± 0.01
N=C(N)N/N=C/c1c(Cl)cccc1Cl [Guanabenz Acetate] | 1.001 ± 0.0081 | 0.986 ± 0.021 | 1.003 ± 0.0061 | 0.964 ± 0.012 | 1.01 ± 0.011 | 0.986 ± 0.008
N#C/C(=C\c1ccc(O)c(O)c1)C(=O)NCCCNC(=O)/C(C#N)=C/c1ccc(O)c(O)c1 [Tyrphostin AG 537] | 0.9823 ± 0.0093 | 0.957 ± 0.021 | 0.821 ± 0.3 | 0.953 ± 0.025 | 0.9857 ± 0.0067 | 0.9917 ± 0.0055
CN(C)CCOC(=O)COc1ccc(Cl)cc1 [Centrophenoxine hydrochloride] | 1.007 ± 0.0058 | 1.017 ± 0.0058 | 1.006 ± 0.0075 | 0.993 ± 0.039 | 1.001 ± 0.0085 | 0.9917 ± 0.0074
Brc1c(NC2=NCCN2)ccc2nccnc12 | 0.992 ± 0.011 | 0.9953 ± 0.0072 | 0.904 ± 0.17 | 0.982 ± 0.011 | 0.9963 ± 0.0038 | 0.9957 ± 0.004
COc1ccc(C[C@@H]2c3cc(OC)c(OC)cc3CC[N@+]2(C)CCC(=O)OCCCCCOC(=O)CC[N@@+]2(C)CCc3cc(OC)c(OC)cc3[C@H]2Cc2ccc(OC)c(OC)c2)cc1OC [Cisatracurium Besylate] | 1.023 ± 0.0058 | 1 ± 0.014 | 1.013 ± 0.0058 | 1.02 ± 0.016 | 1.007 ± 0.0058 | 1.007 ± 0.0058
